Data as given in PubChem BioAssay AID1030 (National Center for Advancing Translational Sciences (NCATS), 2008).
Screen size: about 220,000 compounds; about 16,000 (7.3%) were called active. The inconclusive results got no clear call from the source; some entries with a clear call stand among them for comparison. The call rests on the fitted dose curve; in most records, active means well fitted inhibition curve with a large enough effect (not every such curve was filed as active); inconclusive means small, poorly fitted or top-dose-only effect, or another doubt; inactive means no such curve, though single readings can be large or run the other way. No potency is given beside an inconclusive call; the fits are too rough.

These compounds were tested against Aldehyde dehydrogenase 1A1 (Homo sapiens) (UniProt P00352) (assay: qHTS Assay for Inhibitors of Aldehyde Dehydrogenase 1 (ALDH1A1)). Conditions: Purified ALDH1A1, NADH fluorescence, propionaldehyde substrate; series mostly up to 75.3 µM.
Potency means the concentration at half of the fitted maximal effect; tags describe the fitted curve by direction and shape.

UniProt P00352, sequence (P00352 whole entry, looked up): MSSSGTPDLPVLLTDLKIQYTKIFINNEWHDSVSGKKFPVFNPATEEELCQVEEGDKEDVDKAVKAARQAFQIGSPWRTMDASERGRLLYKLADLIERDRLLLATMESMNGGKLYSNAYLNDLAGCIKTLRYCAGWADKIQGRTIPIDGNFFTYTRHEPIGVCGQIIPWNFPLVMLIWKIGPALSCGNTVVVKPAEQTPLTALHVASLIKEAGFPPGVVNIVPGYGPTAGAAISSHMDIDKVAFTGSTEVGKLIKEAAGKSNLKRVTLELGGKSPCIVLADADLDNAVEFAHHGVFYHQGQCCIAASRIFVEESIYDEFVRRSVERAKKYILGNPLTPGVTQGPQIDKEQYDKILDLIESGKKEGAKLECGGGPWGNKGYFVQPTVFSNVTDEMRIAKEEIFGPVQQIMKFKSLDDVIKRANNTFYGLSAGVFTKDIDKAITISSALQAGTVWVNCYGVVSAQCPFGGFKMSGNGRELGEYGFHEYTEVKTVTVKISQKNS

| SMILES | Potency |
| --- | --- |
| COc1cccc(N2CCN(Cc3nc(N)nc(Nc4ccccc4OC)n3)CC2)c1 | inconclusive [inhibitor, partial curve] |
| O=C(O)/C=C/C(=O)Nc1ccc(O)cc1 | inactive |
| COc1ccc(-c2cc(C(=O)OC3CCOC3=O)c3ccccc3n2)cc1 (stereo unspecified) | inconclusive [inhibitor, single point] |
| COc1ccccc1C1/C(=C(/O)c2ccc(C)cc2)C(=O)C(=O)N1CCN1CCOCC1 (stereo unspecified) | inconclusive [inhibitor, single point] |
| COc1ccc(S(=O)(=O)N(C(=O)c2ccncc2)c2ccc(OC(=O)c3ccncc3)cc2)cc1 | inactive |
| CC1=CC(=O)C2=C(C)CC[C@@H]3[C@@H](OC(=O)[C@H]3C)[C@H]12 | inactive |
| Cn1c(-c2ccco2)n[nH]c1=S | inactive |
| Cc1nn(Cc2ccc(Cl)c(Cl)c2)c(C)c1NC(=O)c1cc(CC(C)C)on1 | inconclusive [inhibitor, single point] |
| CCOC(=O)N1CCN(c2cc(N(C)CCO)c([N+](=O)[O-])c3nonc23)CC1 | inconclusive [inhibitor, partial curve] |
| COc1ccc(C2c3c(oc4ccccc4c3=O)C(=O)N2CC2CCCO2)cc1 (stereo unspecified) | inconclusive [inhibitor, full curve] |
| CC1CCCC(C)N1C(=O)CSCc1ccc(Cl)cc1 (stereo unspecified) | active: 22.4 µM |
| O=C(COC(=O)/C=C/c1ccc(Br)o1)Nc1ccccc1F | active: 14.1 µM |
| O=C1CN(C(=O)COc2ccc(F)cc2Br)c2ccccc2N1 | inconclusive [inhibitor, single point] |
| CN=C(c1ccc([N+](=O)[O-])cc1)N1CCCCC1 | inactive |
| Cc1ccc(NC(=S)Nc2ccc(OC(F)F)c(Cl)c2)cc1F | inconclusive [inhibitor, single point] |
| c1coc(Cn2c(-c3ccco3)nc3ccccc32)c1 | inconclusive [inhibitor, single point] |
| COc1cc2[nH]c3c(=O)n(CCN(C(C)C)C(C)C)cnc3c2cc1OC | inconclusive [inhibitor, single point] |
| O=C(NC(=S)Nc1ccc2oc(=O)ccc2c1)c1ccc(-c2cccc(Cl)c2Cl)o1 | active: 11.2 µM |
| CCC(=O)N1CC23C=CC(CC2CC12CCCCC2)O3 (stereo unspecified) | active: 15.8 µM |
| Cn1c(SCC(=O)OCC(=O)c2ccccc2)nnc1-c1cccs1 | inconclusive [inhibitor, partial curve, poor fit] |
| CCc1nnc(NC(=O)c2csc3c2CCC(C)C3)s1 (stereo unspecified) | inactive |
